{"source": "patent US6962930B1", "about": "“Compounds, compositions and method suitable for amelioration of withdrawal syndromes and withdrawal-induced brain damage” (Lohocla Research Corporation, priority 1997, dated 2005)", "molecular_target": "kainate binding site on non-NMDA glutamate receptors", "assay": "[3H]kainate binding, rat cortical membranes", "settings": "5–200 μM DCUKA tested", "procedure": "Non-specific binding was defined with 0.5 mM kainate."}
{"smiles": "O=C(O)c1cc(NC(=O)N(c2ccccc2)c2ccccc2)c2c(Cl)cc(Cl)cc2n1", "note": "[DCUKA, (N,N-diphenyl)-4-ureido-5,7-dichloro-2-carboxy-quinoline]", "values": [{"measurement": "IC50", "result": "> 200", "unit": "µM"}]}
